# Data as given in the supplement of paper PMC9334596.
# Several values for one entry are separate records, joined by “and”; a condition that tells them apart may be missing. Identical values can stand only once. Over roughly 5,300 compounds, “PER2::LUC luminescence relative to vehicle control” has its median near 0.96; the highest 2% begin near 1.3. This is one part of the list.
# Test system: mPer2Luc MEF
# Assay: PER2::LUC luminescence relative to vehicle control (fold of vehicle); higher = higher PER2::LUC reporter signal
# Conditions: 10 µM
# How it was run: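 The reported values are PER2::LUC luminescence as fold of vehicle control in mouse embryonic fibroblasts carrying the mPer2Luc reporter. Cells were seeded at ~3000 per well in 384-well plates in DMEM with 10% FBS at 37 °C and 5% CO2, and compounds were added at 10 μM 48 h later. ONE-Glo luminescence was read 24 h and 30 h after treatment.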
Structure (SMILES),PER2::LUC luminescence (time after treatment 24 h),PER2::LUC luminescence (time after treatment 30 h)
CC(C)(C)NCC(O)c1ccccc1Cl (centres undefined),0.906,0.931
Cc1cccc([C@H](C)c2c[nH]cn2)c1C,1.18 and 1.08,1.25 and 1.07
C[C@]12Cc3c[nH]nc3C[C@@H]1CC[C@@H]1[C@@H]2CC[C@@]2(C)[C@H]1CC[C@]2(C)O,1.1,1
Cc1nnc2ccc(-c3cccc(C(F)(F)F)c3)nn12,0.905,0.873
COc1cc2c(cc1-c1cc3cc4ccoc4cc3oc1=O)OCO2,1.11,1.09
COc1ccc2c(c1)CN(C)CC2c1ccc(Cl)c(Cl)c1 (centres undefined),1.03,0.863
CCN1C[C@]2(COC)CC[C@H](O)[C@@]34C5C[C@@H]6[C@@H](OC)C[C@](O)(C(CC23)C14)C5[C@H]6OC(C)=O (some centres undefined),1.01,1.05
C#C[C@]1(O)C=C[C@H]2[C@@H]3CCC4=CC(=O)CC[C@@H]4[C@H]3CC[C@@]21CC,0.824,1.05
OC[C@@H](O)[C@H]1O[C@@H]2O[C@H](C(Cl)(Cl)Cl)O[C@@H]2[C@H]1O,1.15 and 0.879,1.26 and 0.923
CC(=O)OC12COC1CC(O)C1(C)C(=O)C(O)C3=C(C)C(O)CC(O)(C(OC(=O)c4ccccc4)C21)C3(C)C (centres undefined),0.878,0.843
O=C(O)CCC1NCC2CC1CN1CCCCC21 (centres undefined),0.935,0.866
C[N+]12CCC(CC1)C(OC(=O)C(O)(c1ccccc1)c1ccccc1)C2 (centres undefined),0.956,0.904
CN1C(=O)CN=C(c2ccccc2)c2cc([N+](=O)[O-])ccc21,0.98,0.927
CC(=O)[C@H]1CC[C@H]2[C@@H]3CC[C@@H]4C[C@H](O)CC[C@]4(C)[C@H]3CC[C@]12C,0.987,1.06
COc1cc2c(cc1OC)[C@@H]1C(=O)c3ccc4oc(C(C)C)cc4c3O[C@@H]1CO2,0.182,0.202
CC(CC(C(N)=O)(c1ccccc1)c1ccccc1)N(C)C (centres undefined),0.891,0.929
C[C@@]12N[C@@H](Cc3ccccc31)c1ccccc12,1.14,1
O=C1CCC[C@@H]2[C@H]3C[C@@H](CN12)[C@@H]1CCCCN1C3.[O-][Cl+3]([O-])([O-])O,1.01,1.05
C[C@]12CC[C@H]3[C@@H](CCC4=CC(=O)CC[C@@]43C)[C@@H]1CC[C@H]2O,0.954,0.889
C#CCN[C@H](C)Cc1ccccc1,1.01,0.818
CCCN(CCC)[C@@H]1CCc2cccc(O)c2C1,0.938,0.816
C[C@H]1C(=O)O[C@@H]2CCN3CC=C(COC(=O)[C@](C)(O)[C@]1(C)O)[C@H]23,0.965,0.929
CCCN1C[C@H](C)N([C@H](c2ccc(C(=O)N(CC)CC)cc2)c2cccc(OC)c2)C[C@H]1C,0.894,0.899
COC[C@]12CN(C=O)[C@@H]3[C@@H]4[C@H](OC)[C@H]1[C@@]3([C@@H](OC)C[C@H]2O)[C@@H]1C[C@@]2(O)[C@H](OC(=O)c3ccccc3)[C@@H]1[C@]4(OC(C)=O)[C@@H](O)[C@@H]2OC,1.04,0.968
COC(=O)C(c1ccccc1)C1CCCCN1 (centres undefined),0.664,0.93
C=C(C)[C@@H]1[C@H]2OC(=O)[C@@H]1[C@]1(O)C[C@H]3OC34C(=O)O[C@H]2[C@@]41C.CC(C)(O)[C@@H]1[C@H]2OC(=O)[C@@H]1[C@]1(O)C[C@H]3OC34C(=O)O[C@H]2[C@@]41C (some centres undefined),0.876,1.08

Structure (SMILES),PER2::LUC luminescence (time after treatment 24 h),PER2::LUC luminescence (time after treatment 30 h)
CC(=O)OCC1=C(C(=O)O)N2C(=O)[C@@H](N)[C@H]2SC1,0.861,1.02
C[C@@H](NC(=O)[C@@H](N)Cc1ccc(O)cc1)C(=O)N[C@@H](Cc1ccccc1)C(=O)NCC(=O)N[C@@H](Cc1ccc(O)cc1)C(=O)N1CCC[C@H]1C(=O)N[C@@H](CO)C(N)=O,1.07,0.929
C/C=C(/C)C(=O)O[C@H]1CC[C@@]2(C)[C@@H]3CC[C@H]4[C@]5(O)C[C@H](O)[C@@]6(O)[C@@H](CN7C[C@@H](C)CC[C@H]7[C@@]6(C)O)[C@]5(O)C[C@]42O[C@]13O,1.01,0.994
CO[C@]12C[C@@H](COC(=O)c3cncc(Br)c3)CN(C)[C@@H]1Cc1cn(C)c3cccc2c13,0.883,0.851
C=C[C@]12CN(C)[C@@H]3[C@H]4CO[C@H](C[C@H]41)[C@]1(C(=O)Nc4ccccc41)[C@@H]32,1.06,1.1
CC(C)NP(=O)(NC(C)C)OP(=O)(NC(C)C)NC(C)C,0.962,0.904
C=CCc1ccccc1OCC(O)CNC1(C)CCC(C(C)(C)NC(=O)CBr)CC1 (centres undefined),0.631,0.544
O=S(=O)(F)Cc1ccccc1,1.12,1.09
CSC(=S)NCc1c[nH]c2ccccc12,0.994,0.896
COc1cc([C@@H]2c3cc4c(c(O)c3C[C@H]3COC(=O)[C@@H]32)OCO4)cc(OC)c1OC,0.965,0.959
CC(=O)NBr,0.953,0.925
O=c1[nH]c(=O)n(Cl)c(=O)n1Cl,1.01,0.853
"C[C@H](NC(=O)Cc1cc(F)cc(F)c1)C(=O)N[C@H]1N=C(c2ccccc2)c2ccccc2N(C)C1=O [Gamma-SECRETASE INHIBITOR XXI, COMPOUND E]",0.924,0.948
NC(=O)CN1CCCC1=O,0.842,1.1
NCc1cc(O)no1,0.944 and 0.875,1.03 and 0.962
CC(=O)OC1CCC23C(=O)OC45CCC(C6=CC(=O)OC6)C4(C)CCC2C5CCC3(O)C1 (centres undefined),1.01,1.03
Oc1ccc2c3c1O[C@H]1c4oc5ccccc5c4C[C@@]4(O)[C@@H](C2)N(CC2CC2)CC[C@]314,0.925 and 0.898,1.02 and 0.908
CO[C@H](C)[C@](O)(C(=O)OCC1=CCN2CC[C@H](O)[C@@H]12)C(C)C,0.997,1.01
COc1c2c3c4c(c(OC)c(=O)c5c(O)cc(OC)c(c6c(OC)cc(O)c(c1=O)c63)c54)[C@@H](C(C)=O)[C@@](C)(O)C2,1.14,1.06
O=P1(NCCCl)OCCCN1CCCl (centres undefined),0.866,1.01
Oc1ccc(Cl)cc1,1.07 and 1.04,1.02 and 1.01
CC1=CCC[C@@H]2C1(C)CCC(C)[C@@]2(C)CC/C(C)=C/C[n+]1cn(C)c2c(N)ncnc21 (some centres undefined),0.948,0.801
CN1CC[C@@]2(C)c3cc(OC(=O)Nc4ccccc4)ccc3N(C)[C@@H]12,0.901 and 0.98,0.886 and 0.703
N#CCCN,1.18,1.1
CC(C)c1c(CN(C)C(C)Cc2ccccc2)n(C)n(-c2ccccc2)c1=O (centres undefined),1.02,0.911
C=C(C)[C@@H]1[C@H]2OC(=O)[C@@H]1[C@]1(O)C[C@H]3O[C@]34C(=O)O[C@H]2[C@]14C,0.976,1.02

Structure (SMILES),PER2::LUC luminescence (time after treatment 24 h),PER2::LUC luminescence (time after treatment 30 h)
COc1ccc2c(c1O)-c1cc(O)cc3c1[C@@H](C2)N(C)CC3,0.815,0.917
N#Cc1ccccc1-c1cc(-c2ccccn2)cn(-c2ccccc2)c1=O,0.947,1.06
C[C@]12CCC(=O)C=C1CCc1ccc(O)cc12,0.947,0.712
Cc1cccc(C)c1NC1=NCCCS1,1.03 and 0.704,0.939 and 1.06
O=C1CCC[C@@H]2[C@H]3CCCN4CCC[C@@H](CN12)[C@@H]34,1.03 and 1.09,0.999 and 1.13
COc1cc2c(cc1OC)C1CC(=O)C(CC(C)C)CN1CC2 (centres undefined),1.13,0.914
CCCCC/C=C\C/C=C\C/C=C\C/C=C\CCCC(=O)Nc1ccc(O)cc1,1.22,1.24
CCNC(=O)[C@H]1O[C@@H](n2cnc3c(N)ncnc32)[C@H](O)[C@@H]1O,1.06,1.03
COc1c2c(cc3c1OCO3)CC[N+](C)=C2,0.995,0.982
CC(=O)OCC1=C(C(=O)O)N2C(=O)[C@@H](NC(=O)CCC[C@@H](N)C(=O)O)[C@H]2SC1,0.806 and 0.976,1.08 and 0.911
O=C1CN=C(c2ccccc2)c2cc([N+](=O)[O-])ccc2N1,0.971,0.769
Cc1ccc(S(=O)(=O)N[C@@H](CCCCN)C(=O)CCl)cc1,1.11,1.03
CCCN1CCC[C@@H](c2cccc(O)c2)C1,0.913,0.87
CN1C(=O)COc2c(C(=O)NC3CN4CCC3CC4)cc(Cl)cc21 (centres undefined),0.845 and 0.723 and 0.393,0.823 and 0.799 and 0.544
CCOC(OCC)P(=O)(O)CCCN,1.05,1.01
NC(=O)C[S+]([O-])C(c1ccccc1)c1ccccc1 (centres undefined),1.02,0.986
Cc1cc(SCc2sc(-c3ccc(C(F)(F)F)c(F)c3)nc2C)ccc1OCC(=O)O,1.03,1.21
C=C1[C@@H](C)[C@H]2[C@H](Cc3ccccc3)NC(=O)[C@]23OC(=O)/C=C/[C@H](O)CCC[C@@H](C)C/C=C/[C@H]3[C@@H]1O,0.353,0.305
CC(C)(C)[C@]1(O)CC2OC(=O)CC23C(=O)OC2OC(=O)[C@H](O)C231 (some centres undefined),1.09,1.09
CC[C@@H]1/C=C/C=C/C[C@H](C)[C@H](O)[C@](C)(O)C(=O)[C@H](C)[C@@H](O)[C@H](C)C(=O)[C@H](C)[C@@H](O)[C@H](C)/C=C/C(=O)O[C@H]2[C@@H](C)[C@@H](CC1)O[C@@]1(CC[C@@H](C)[C@@H](C[C@H](C)O)O1)[C@@H]2C,0.37,0.402
CC[C@@H](C(=O)O)[C@@H]1O[C@@H]([C@@H](C)[C@H](O)[C@H](C)C(=O)[C@H](CC)[C@H]2O[C@]3(C=C[C@@H](O)[C@]4(CC[C@@](C)([C@H]5CC[C@](O)(CC)[C@H](C)O5)O4)O3)[C@H](C)C[C@@H]2C)[C@@H](C)C[C@@H]1C,0.201,0.184
CN1CCN(C(=O)OC2c3nccnc3C(=O)N2c2ccc(Cl)cn2)CC1 (centres undefined),0.806,0.82
Clc1ccc(C(OCCN2CCCCC2)c2ccccc2)cc1 (centres undefined),0.798,0.799
C[C@@H](CO)NC(=O)[C@@H]1C=C2c3cccc4[nH]cc(c34)C[C@H]2N(C)C1,0.963,0.89
CC1=C[C@]23C(=O)[C@@H](C=C(COC(=O)c4ccccc4)[C@@H](O)[C@]2(O)[C@H]1OC(=O)c1ccccc1)[C@H]1[C@@H](C[C@H]3C)C1(C)C,0.86,0.807
